Laboratory results reported in the BET-seq Pho4 binding data (Le et al. 2018).
The other results are listed elsewhere or left out. Values were computed here from the reads of four pooled replicates and scatter widely.

The sequences below were run against T1, Pho4 (S. cerevisiae) (UniProt P07270) (assay: relative binding free energy (BET-seq); higher = weaker binding). Settings: reference: library average.
T1 sequence: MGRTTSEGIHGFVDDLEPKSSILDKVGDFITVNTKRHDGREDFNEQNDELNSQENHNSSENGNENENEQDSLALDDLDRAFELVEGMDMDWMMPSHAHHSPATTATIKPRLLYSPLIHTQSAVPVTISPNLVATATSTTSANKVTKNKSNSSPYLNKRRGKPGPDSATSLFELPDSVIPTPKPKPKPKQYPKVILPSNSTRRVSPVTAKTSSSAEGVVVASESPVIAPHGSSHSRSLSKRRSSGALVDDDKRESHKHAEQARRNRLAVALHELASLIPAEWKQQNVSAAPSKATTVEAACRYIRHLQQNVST

Sequence	relative binding free energy [kcal/mol]
GAGTCCACGTGGTTTG	0.1
TGACGCACGTGTGTAG	-0.1
AGATGCACGTGTTAAG	0.02
AATTTCACGTGAAATG	0.22
GGCGGCACGTGGTGTT	-0.06
GTATACACGTGTTGGT	0.08
TCATGCACGTGTGTAG	0.02
TCTGTCACGTGGTAGG	0
TGTTTCACGTGGCAGC	0.28
ATTAGCACGTGATTAT	0
ATAGACACGTGGTTTT	0.09
TGTCACACGTGGGTTG	-0.13
AGTATCACGTGTAGGG	0.1
TCGAACACGTGGGGTA	-0.08
TTATGCACGTGTCGGA	-0.1
GTGTGCACGTGTTTGC	0.07
GGTGTCACGTGACTTT	0.19
TCGATCACGTGGGTGT	-0.05
CTGTTCACGTGGGATG	0.11
GCGATCACGTGGTAGT	0.14
TTAATCACGTGTGAGT	0.15
CTGCGCACGTGTATGT	-0.1
TTCAGCACGTGATGAG	0.14

Sequence	relative binding free energy [kcal/mol]
GGGTGCACGTGAGGGA	0.13
TAATTCACGTGCGGTA	0.23
GGAGTCACGTGTTAGG	0.25
CTTGTCACGTGTCGCG	0.2
GGGTTCACGTGCAAGA	0.42
TGATGCACGTGCCGTT	-0.13
TGTAACACGTGGGGCA	-0.12
GGATACACGTGTAGGA	0.22
ATGGGCACGTGATAAG	0.01
GGCGACACGTGATTGG	0.19
CTTGCCACGTGATGGT	0.06
AGGTACACGTGTTTTC	0.16
TTTTGCACGTGTTTGA	0.07
ATCGGCACGTGGATGG	-0.13
CGTATCACGTGGGATT	0.24
TAATGCACGTGTATAG	0.01
CGGGGCACGTGAGTTA	0.19
GTGGCCACGTGGGTAA	-0.23
TGCGTCACGTGACGGT	0.07
AAGGTCACGTGGGGGT	-0.03
CGTGACACGTGGTATT	-0.07
TGCGTCACGTGGTTGA	0.15
GGGGCCACGTGGCAGG	-0.22

Sequence	relative binding free energy [kcal/mol]
GTAAGCACGTGATATG	0.17
TAGTTCACGTGAGTTT	0.43
AGTTGCACGTGTACAT	-0.02
TCATACACGTGTCGTT	0.19
GTGTTCACGTGGGTAA	0.2
ATTGTCACGTGGAGTA	0.08
GTGTTCACGTGATATA	0.43
ATGGGCACGTGAAGTG	0.24
TTGCCCACGTGTGGGG	-0.1
GGGCGCACGTGGTTGA	-0.12
GTTATCACGTGTTAGA	0.15
ATTGTCACGTGTGAAA	0.25
TTATGCACGTGGCGAT	-0.06
GGAGGCACGTGGTTAG	-0.11
ATTGTCACGTGACCTG	0.18
GTGGACACGTGCGCGG	-0.18
TGTAGCACGTGAGCGT	0.1
TGCGACACGTGGTGAG	-0.02
AGAAACACGTGTTTTG	-0.01
TTGTGCACGTGCCTTG	-0.09
GCTTGCACGTGAGTAT	0.2
GGGATCACGTGTAGGT	0.2
TCGGACACGTGGGTCA	-0.02

Sequence	relative binding free energy [kcal/mol]
TTATCCACGTGATTTT	0.04
GCGTTCACGTGAGGAT	0.63
GATATCACGTGAGGTG	0.45
GTGTTCACGTGAATAC	0.53
TATTACACGTGGGAGT	0.02
TTTAGCACGTGCCGTT	-0.04
TTAGGCACGTGATACT	0.01
TAGTCCACGTGTGGTA	0.05
AGGTTCACGTGTAGTA	0.29
TATCACACGTGGTTGT	0.07
TGAGGCACGTGATGAT	-0.05
TTCGCCACGTGGTGGT	-0.1
GGAGTCACGTGAGTTG	0.38
TATATCACGTGTGTGA	0.13
GTGTTCACGTGATCGA	0.42
GCGGTCACGTGAACGT	0.43
AAAGTCACGTGTGAGT	0.13
GGGCACACGTGGTGCG	-0.05
AGTGCCACGTGTAGTG	-0.08
CGGGACACGTGGTATG	-0.06
GGCGGCACGTGATTGA	0.05
AGATGCACGTGGTTGG	-0.1
TTGTCCACGTGGTTGG	0.02

Sequence	relative binding free energy [kcal/mol]
TGCGACACGTGCGGTG	-0.05
TCAGGCACGTGGTGGG	-0.2
TTGGTCACGTGCAAGG	0.11
GAAATCACGTGGGGCG	0
TGTGCCACGTGCGGAT	-0.12
AGGGTCACGTGATCTG	0.21
CTGAACACGTGGTGTT	0
TGTCGCACGTGTTGCA	-0.02
GATGGCACGTGCGGTG	-0.16
ATGCTCACGTGTGGTT	0.19
ATTTGCACGTGATGAG	0.07
GTTCACACGTGTAGGG	0.23
TCAGTCACGTGTGTGG	0.03
CTGGTCACGTGGGCCA	0.21
CGTATCACGTGTTATG	0.01
GGAGGCACGTGTGTCA	-0.12
AAGGGCACGTGAGCTT	0.08
TCTGGCACGTGCTGTT	-0.08
GGGATCACGTGTGTTC	0.25
CAGGGCACGTGGAGGT	-0.07
TAATGCACGTGCTGTT	-0.05
AAAGTCACGTGGGACG	0.05
TTTATCACGTGGGGAG	0.08
